These are yes or no findings as the source states them, for the method shown. In cells and extracts the contact can be indirect. Some binding calls cover weakened binding; strength is not graded here.
How the values were obtained:
[1] = target: HA-VHL-L188V (type 2C mutant), stably expressed in 786-O cells (human) (UniProt P40337); experiment: co-IP; anti-HA immunoprecipitation from lysates of 786-O cells stably expressing HA-VHL (EBC buffer: 50 mM Tris pH 8.0, 120 mM NaCl, 0.5% NP-40), immunoblot for endogenous TFAM; cells with shSCR, shEGLN1 or shEGLN2 included
[2] = target: HA-VHL wild-type (pVHL), stably expressed in 786-O cells (human) (UniProt P40337); experiment: as above
[3] = target: HA-VHL wild-type (pVHL), stably expressed in 786-O cells (human) (UniProt P40337); experiment: proximity ligation; in situ PLA with TFAM and VHL antibodies in fixed, permeabilised 786-O cells (VHL WT against pRC3), MitoTracker Red staining, confocal microscopy
[4] = target: HA-VHL wild-type (pVHL), stably expressed in 786-O cells (human) (UniProt P40337); experiment: co-IP; anti-HA immunoprecipitation from lysates of 786-O HA-VHL WT cells in which EGLN3 was downregulated with lentiviral shRNA

Chains of the proteins cited; added tags and fusions are not shown. Lines headed by an entry give the natural chain unless they say otherwise; changes in a name come on top.
UniProt P40337: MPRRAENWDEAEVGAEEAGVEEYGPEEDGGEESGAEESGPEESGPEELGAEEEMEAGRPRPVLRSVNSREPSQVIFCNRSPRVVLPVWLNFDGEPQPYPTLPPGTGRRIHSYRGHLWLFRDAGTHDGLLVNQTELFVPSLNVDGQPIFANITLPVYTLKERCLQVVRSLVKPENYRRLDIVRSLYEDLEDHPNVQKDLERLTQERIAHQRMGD

binding [1]: no binding
binding [2]: binds
binding [3]: binds
B1: endogenous TFAM (mitochondrial transcription factor A) of 786-O cells (protein, UniProt Q00059 43-246)
chain: SSVLASCPKKPVSSYLRFSKEQLPIFKAQNPDAKTTELIRRIAQRWRELPDSKKKIYQDAYRAEWQVYKEEISRFKEQLTPSQIMSLEKEIMDKHLKRKAMTKKKELTLLGKPKRPRSAYNVYVAERFQEAKGDSPQEKLKTVKENWKNLSDSEKELYIQHAKEDETRYHNEMKSWEEQMIEVGRKDLLRRTIKKQRKYGAEEC
binding [4]: no binding (condition: EGLN3 downregulated with shRNA)
